Laboratory results published in the supplement of paper PMC12217912.
This is one part of the list. The full chains were built here from the parent and the listed change. Values near 0.05 are background.

B1: TEV protease; numbered along this chain (parent)
chain: MGESLFKGPRDYNPISSSICHLTNESDGHTTSLYGIGFGPFIITNKHLFRRNNGTLVVQSLHGVFKVKDTTTLQQHLVDGRDMIIIRMPKDFPPFPQKLKFREPQREERICLVTTNFQTKSMSSMVSDTSCTFPSGDGIFWKHWIQTKDGQCGSPLVSTRDGFIVGIHSASNFTNTNNYFTSVPKNFMELLTNQEAQQWVSGWRLNADSVLWGGHKVFMVKPEEPFQPVKEATQL

Variants of: B1
Experiment: raw area under fraction-flipped curve 0-4 h after induction (AUC4h, not background-subtracted), DNA-recorder readout of cleavage of the substrate (dimensionless); higher = more cleavage of the substrate by the protease variant
Details: temperature: 34 °C; time window: 0-4 h after rhamnose induction
Procedure: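 In vivo DNA recorder in E. coli TOP10(DE3) ΔrhaA at 34 °C. Each TEVp single-site mutant (parent TEVp 0) is paired with a single-site variant of the 7-mer TEVs (canonical ENLYFQ|S). The substrate sits between flexible linkers in a Bxb1-sfGFP-TEVs-SsrA fusion, so cleavage stabilises Bxb1 and speeds flipping of a recombination array, read by NGS. The value is the raw area under the fraction-flipped curve over 0-4 h after rhamnose induction (AUC4h), with ≥20 reads per time point. It is not background-subtracted; inactive controls average about 0.047.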
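Further: Bxb1 expression induced with 0.2% (w/v) L-rhamnose at OD600 near 0.5, cultures sampled hourly, flipped fraction per protease–substrate barcode pair counted by paired-end Illumina sequencing.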

Row | Variant | area with substrate ENLYFCS | area with substrate ENLYFES | area with substrate ENLYFFS | area with substrate ENLYFHS | area with substrate ENLYFIS | area with substrate ENLYFRS | area with substrate ENLYFTS | area with substrate ENLYFKS | area with substrate ENLYFLS | area with substrate ENLYFMS
1 | MGESLFKGPRDYNPISSSICHLTNESDGHTTSLYGIGFGPFIITNKHLFRRNNGTLVVQSLHGVFKVKDTTTLQQHLVDGRDMIIIRMPKDFPPFPQKLKFREPQREERICLVTTNFQTKSMSSMVSDTSITFPSGDGIFWKHWIQTKDGQCGSPLVSTRDGFIVGIHSASNFTNTNNYFTSVPKNFMELLTNQEAQQWVSGWRLNADSVLWGGHKVFMVKPEEPFQPVKEATQL [C131I] | 0.0696 | 0.0605 | 0.0716 | 0.0268 | 0.0471 | 0.0655 | 0.038 | – | – | –
2 | MGESLFKGPRDYNPISSSICHLTNESDGHTTSLYGIGFGPFIITNKHLFRRNNGTLVVQSLHGVFKVKDTTTLQQHLVDGRDMIIIRMPKDFPPFPQKLKFREPQREERICLVTTNFQTKSMSSMVSDTSCTFPSGHGIFWKHWIQTKDGQCGSPLVSTRDGFIVGIHSASNFTNTNNYFTSVPKNFMELLTNQEAQQWVSGWRLNADSVLWGGHKVFMVKPEEPFQPVKEATQL [D137H] | 0.0596 | 0.0657 | 0.0733 | 0.0705 | 0.0616 | – | – | 0.0583 | 0.0561 | 0.0676
3 | MGESLFKGPRDYNPISSSICHLTNESDGHTTSLYGIGFGPFIITNKHLFRRNNGTLVVQSLHGVFKVKDTTTLQQHLVDGRDMIIIRMPKDFPPFPQKLKFREPQREERICLVTTNFQTKSMSSMVSDTSCTFPSGDFIFWKHWIQTKDGQCGSPLVSTRDGFIVGIHSASNFTNTNNYFTSVPKNFMELLTNQEAQQWVSGWRLNADSVLWGGHKVFMVKPEEPFQPVKEATQL [G138F] | 0.043 | – | – | – | – | – | – | – | – | –
4 | MGESLFKGPRDYNPISSSICHLTNESDGHTTSLYGIGFGPFIITNKHLFRRNNGTLVVQSLHGVFKVKDTTTLQQHLVDGRDMIIIRMPKDFPPFPQKLKFREPQREERICLVTTNFQTKSMSSMVSDTSCTFPSGDMIFWKHWIQTKDGQCGSPLVSTRDGFIVGIHSASNFTNTNNYFTSVPKNFMELLTNQEAQQWVSGWRLNADSVLWGGHKVFMVKPEEPFQPVKEATQL [G138M] | 0.0688 | 0.0577 | – | 0.058 | – | – | 0.0807 | – | – | –
5 | MGESLFKGPRDYNPISSSICHLTNESDGHTTSLYGIGFGPFIITNKHLFRRNNGTLVVQSLHGVFKVKDTTTLQQHLVDGRDMIIIRMPKDFPPFPQKLKFREPQREERICLVTTNFQTKSMSSMVSDTSCTFPSGDGTFWKHWIQTKDGQCGSPLVSTRDGFIVGIHSASNFTNTNNYFTSVPKNFMELLTNQEAQQWVSGWRLNADSVLWGGHKVFMVKPEEPFQPVKEATQL [I139T] | 0.083 | 0.0569 | – | – | – | – | – | 0.0404 | – | –
6 | MGESLFKGPRDYNPISSSICHLTNESDGHTTSLYGIGFGPFIITNKHLFRRNNGTLVVQSLHGVFKVKDTTTLQQHLVDGRDMIIIRMPKDFPPFPQKLKFREPQREERICLVTTNFQTKSMSSMVSDTSCTFPSGDGIFWNHWIQTKDGQCGSPLVSTRDGFIVGIHSASNFTNTNNYFTSVPKNFMELLTNQEAQQWVSGWRLNADSVLWGGHKVFMVKPEEPFQPVKEATQL [K142N] | 0.0608 | 0.0642 | 0.0731 | – | 0.0579 | – | 0.0617 | 0.0708 | – | 0.0814
7 | MGESLFKGPRDYNPISSSICHLTNESDGHTTSLYGIGFGPFIITNKHLFRRNNGTLVVQSLHGVFKVKDTTTLQQHLVDGRDMIIIRMPKDFPPFPQKLKFREPQREERICLVTTNFQTKSMSSMVSDTSCTFPSGDGIFWKHWIQTKDYQCGSPLVSTRDGFIVGIHSASNFTNTNNYFTSVPKNFMELLTNQEAQQWVSGWRLNADSVLWGGHKVFMVKPEEPFQPVKEATQL [G150Y] | 0.0645 | 0.0717 | 0.0566 | – | 0.0505 | 0.0433 | 0.0618 | 0.0558 | 0.055 | 0.0612
8 | MGESLFKGPRDYNPISSSICHLTNESDGHTTSLYGIGFGPFIITNKHLFRRNNGTLVVQSLHGVFKVKDTTTLQQHLVDGRDMIIIRMPKDFPPFPQKLKFREPQREERICLVTTNFQTKSMSSMVSDTSCTFPSGDGIFWKHWIQTKDGQCISPLVSTRDGFIVGIHSASNFTNTNNYFTSVPKNFMELLTNQEAQQWVSGWRLNADSVLWGGHKVFMVKPEEPFQPVKEATQL [G153I] | 0.0657 | – | 0.0739 | 0.0813 | 0.0453 | 0.044 | 0.0428 | 0.0364 | – | 0.0537
9 | MGESLFKGPRDYNPISSSICHLTNESDGHTTSLYGIGFGPFIITNKHLFRRNNGTLVVQSLHGVFKVKDTTTLQQHLVDGRDMIIIRMPKDFPPFPQKLKFREPQREERICLVTTNFQTKSMSSMVSDTSCTFPSGDGIFWKHWIQTKDGQCGAPLVSTRDGFIVGIHSASNFTNTNNYFTSVPKNFMELLTNQEAQQWVSGWRLNADSVLWGGHKVFMVKPEEPFQPVKEATQL [S154A] | 0.063 | 0.06 | 0.0663 | 0.0606 | 0.0616 | 0.0592 | 0.0575 | 0.0691 | – | 0.0625
10 | MGESLFKGPRDYNPISSSICHLTNESDGHTTSLYGIGFGPFIITNKHLFRRNNGTLVVQSLHGVFKVKDTTTLQQHLVDGRDMIIIRMPKDFPPFPQKLKFREPQREERICLVTTNFQTKSMSSMVSDTSCTFPSGDGIFWKHWIQTKDGQCGSPLVSVRDGFIVGIHSASNFTNTNNYFTSVPKNFMELLTNQEAQQWVSGWRLNADSVLWGGHKVFMVKPEEPFQPVKEATQL [T159V] | 0.072 | – | – | 0.0383 | – | – | – | – | – | –
11 | MGESLFKGPRDYNPISSSICHLTNESDGHTTSLYGIGFGPFIITNKHLFRRNNGTLVVQSLHGVFKVKDTTTLQQHLVDGRDMIIIRMPKDFPPFPQKLKFREPQREERICLVTTNFQTKSMSSMVSDTSCTFPSGDGIFWKHWIQTKDGQCGSPLVSTRDGNIVGIHSASNFTNTNNYFTSVPKNFMELLTNQEAQQWVSGWRLNADSVLWGGHKVFMVKPEEPFQPVKEATQL [F163N] | 0.0678 | – | – | – | – | 0.0641 | – | – | – | –

Same assay, conditions: temperature: 34 °C; time window: 0-4 h after rhamnose induction

Row | Variant | area with substrate ENLYFNS | area with substrate ENLYFPS | area with substrate ENLYFSS | area with substrate ENLYFDS | area with substrate ENLYFWS | area with substrate ENLYFGS | area with substrate ENLYFVS
12 | MGESLFKGPRDYNPISSSICHLTNESDGHTTSLYGIGFGPFIITNKHLFRRNNGTLVVQSLHGVFKVKDTTTLQQHLVDGRDMIIIRMPKDFPPFPQKLKFREPQREERICLVTTNFQTKSMSSMVSDTSCTFPSGHGIFWKHWIQTKDGQCGSPLVSTRDGFIVGIHSASNFTNTNNYFTSVPKNFMELLTNQEAQQWVSGWRLNADSVLWGGHKVFMVKPEEPFQPVKEATQL [D137H] | 0.0828 | 0.0582 | – | – | – | – | –
13 | MGESLFKGPRDYNPISSSICHLTNESDGHTTSLYGIGFGPFIITNKHLFRRNNGTLVVQSLHGVFKVKDTTTLQQHLVDGRDMIIIRMPKDFPPFPQKLKFREPQREERICLVTTNFQTKSMSSMVSDTSCTFPSGDMIFWKHWIQTKDGQCGSPLVSTRDGFIVGIHSASNFTNTNNYFTSVPKNFMELLTNQEAQQWVSGWRLNADSVLWGGHKVFMVKPEEPFQPVKEATQL [G138M] | 0.048 | 0.0648 | 0.0492 | – | – | – | –
14 | MGESLFKGPRDYNPISSSICHLTNESDGHTTSLYGIGFGPFIITNKHLFRRNNGTLVVQSLHGVFKVKDTTTLQQHLVDGRDMIIIRMPKDFPPFPQKLKFREPQREERICLVTTNFQTKSMSSMVSDTSCTFPSGDGTFWKHWIQTKDGQCGSPLVSTRDGFIVGIHSASNFTNTNNYFTSVPKNFMELLTNQEAQQWVSGWRLNADSVLWGGHKVFMVKPEEPFQPVKEATQL [I139T] | – | – | 0.0678 | – | – | – | –
15 | MGESLFKGPRDYNPISSSICHLTNESDGHTTSLYGIGFGPFIITNKHLFRRNNGTLVVQSLHGVFKVKDTTTLQQHLVDGRDMIIIRMPKDFPPFPQKLKFREPQREERICLVTTNFQTKSMSSMVSDTSCTFPSGDGIFWNHWIQTKDGQCGSPLVSTRDGFIVGIHSASNFTNTNNYFTSVPKNFMELLTNQEAQQWVSGWRLNADSVLWGGHKVFMVKPEEPFQPVKEATQL [K142N] | – | 0.0968 | 0.071 | 0.0581 | – | – | –
16 | MGESLFKGPRDYNPISSSICHLTNESDGHTTSLYGIGFGPFIITNKHLFRRNNGTLVVQSLHGVFKVKDTTTLQQHLVDGRDMIIIRMPKDFPPFPQKLKFREPQREERICLVTTNFQTKSMSSMVSDTSCTFPSGDGIFWKHWIQTKDYQCGSPLVSTRDGFIVGIHSASNFTNTNNYFTSVPKNFMELLTNQEAQQWVSGWRLNADSVLWGGHKVFMVKPEEPFQPVKEATQL [G150Y] | 0.0432 | 0.0683 | – | 0.051 | 0.0523 | – | –
17 | MGESLFKGPRDYNPISSSICHLTNESDGHTTSLYGIGFGPFIITNKHLFRRNNGTLVVQSLHGVFKVKDTTTLQQHLVDGRDMIIIRMPKDFPPFPQKLKFREPQREERICLVTTNFQTKSMSSMVSDTSCTFPSGDGIFWKHWIQTKDGQCISPLVSTRDGFIVGIHSASNFTNTNNYFTSVPKNFMELLTNQEAQQWVSGWRLNADSVLWGGHKVFMVKPEEPFQPVKEATQL [G153I] | 0.0626 | 0.0625 | – | – | – | – | –
18 | MGESLFKGPRDYNPISSSICHLTNESDGHTTSLYGIGFGPFIITNKHLFRRNNGTLVVQSLHGVFKVKDTTTLQQHLVDGRDMIIIRMPKDFPPFPQKLKFREPQREERICLVTTNFQTKSMSSMVSDTSCTFPSGDGIFWKHWIQTKDGQCGAPLVSTRDGFIVGIHSASNFTNTNNYFTSVPKNFMELLTNQEAQQWVSGWRLNADSVLWGGHKVFMVKPEEPFQPVKEATQL [S154A] | – | 0.0619 | 0.0757 | 0.0578 | – | 0.062 | –
19 | MGESLFKGPRDYNPISSSICHLTNESDGHTTSLYGIGFGPFIITNKHLFRRNNGTLVVQSLHGVFKVKDTTTLQQHLVDGRDMIIIRMPKDFPPFPQKLKFREPQREERICLVTTNFQTKSMSSMVSDTSCTFPSGDGIFWKHWIQTKDGQCGSPLVSVRDGFIVGIHSASNFTNTNNYFTSVPKNFMELLTNQEAQQWVSGWRLNADSVLWGGHKVFMVKPEEPFQPVKEATQL [T159V] | – | 0.077 | – | – | – | – | 0.0612
20 | MGESLFKGPRDYNPISSSICHLTNESDGHTTSLYGIGFGPFIITNKHLFRRNNGTLVVQSLHGVFKVKDTTTLQQHLVDGRDMIIIRMPKDFPPFPQKLKFREPQREERICLVTTNFQTKSMSSMVSDTSCTFPSGDGIFWKHWIQTKDGQCGSPLVSTRDGNIVGIHSASNFTNTNNYFTSVPKNFMELLTNQEAQQWVSGWRLNADSVLWGGHKVFMVKPEEPFQPVKEATQL [F163N] | – | – | – | 0.0627 | – | – | –
